Source: PubChem BioAssay AID624296 (National Center for Advancing Translational Sciences (NCATS), 2012)
Among all 350,000 compounds or so, about 9,900 (2.8%) were called active. Inconclusive results, whose numbers are uncertain, are shown with a selection of clear calls. Calls come from the whole dose curve; as a rule, active = well fitted activation curve with a large enough effect; inconclusive = small, poorly fitted or top-dose-only effect; inactive = no such curve, though single readings can be large or run the other way. No potency is given beside an inconclusive call; the fits are too rough.

Experiment: A quantitative high throughput screen for small molecules that induce DNA re-replication in MCF 10a normal breast cells. Note: nearly all actives have a fitted effect of over 50% in size.
Details: MCF 10A DNA re-replication, Hoechst nuclear intensity, 48 h; series mostly up to 46.1 µM
Potency is the fitted concentration of half-maximal effect; tags give direction and shape of the fitted curve.

Question: With `COc1ccc(NC(=S)Nc2ccc(OCc3ccccc3)cc2)c(OC)c1` as the compound, how does the Potency read?
Answer: The Potency was “inactive”.

Question: For `CSCC[C@H](NC(=O)c1cccc(S(=O)(=O)N2CCN(C)CC2)c1)c1nc2ccccc2[nH]1`, which Potency is on record?
Answer: Its Potency is “inactive”.

Question: Which Potency does the source give for `COc1ccc(/C(=N/O)C(C)(C)NO)cc1` here?
Answer: The Potency was “inactive”.

Question: For `CCOC(=O)c1ccc(NC(=O)CSc2nnc(C3CCCCC3)n2C)cc1`, which Potency is on record?
Answer: Its Potency is inconclusive [activator, partial curve, poor fit].

Question: For `COC(=O)c1ccccc1NC(=O)[C@@H]1CCC(=O)N1C1OC(=O)c2c1ccc(OC)c2OC` (stereo not given in full), which Potency is on record?
Answer: The Potency was inconclusive [activator, full curve, poor fit].

Question: With `CC(=O)Nc1ncnc2c1c(-c1ccc(Cl)cc1)nn2C(C)(C)C` as the compound, how does the Potency read?
Answer: The Potency was inconclusive [activator, partial curve].

Question: With `COc1cccc(CNC(=O)CN(C)S(=O)(=O)c2ccc3c(c2)n(C)c(=O)c(=O)n3C)c1` as the compound, how does the Potency read?
Answer: Its Potency is “inactive”.

Question: Which Potency does the source give for `CN1c2ccccc2C2(C)CCCC3=Cc4cccc([N+](=O)[O-])c4OC312` (stereo not given) here?
Answer: The Potency was inconclusive [activator, single point].

Question: With `O=C(Nc1ccccc1)Nc1ccc2c(c1)CCC2` as the compound, how does the Potency read?
Answer: The Potency was “inactive”.

Question: For `Cc1ccc(N=C2NC(=O)/C(=C/C=C/c3ccco3)S2)cc1`, which Potency is on record?
Answer: Its Potency is inconclusive [activator, single point].

Question: With `COc1ccc2cc(C(=O)N/N=C/c3sc4ccccc4c3O)ccc2c1` as the compound, how does the Potency read?
Answer: The Potency was inconclusive [activator, single point].

Question: For `Cc1cccc(C)c1OCC(O)CN1CCC(CN2C(=O)c3cccc4cccc(c34)C2=O)CC1` (stereo not given), which Potency is on record?
Answer: The Potency was inconclusive [activator, single point].

Question: Which Potency does the source give for `CCOc1ccc(C2C(C(=O)c3ccco3)=C(O)C(=O)N2CCN2CCOCC2)cc1` (stereo not given) here?
Answer: Its Potency is “inactive”.

Question: With `COC(=O)c1cccc(N(CC(=O)NC2CCCCC2)C(=O)CNC(=O)c2cccs2)c1` as the compound, how does the Potency read?
Answer: The Potency was “inactive”.

Question: Which Potency does the source give for `Cc1cccc(-c2nc(CNC(=O)c3ccco3)cs2)c1` here?
Answer: Its Potency is “inactive”.

Question: For `O=C1NN(c2ccc(F)cc2)C(=O)/C1=C\C=C\c1ccco1`, which Potency is on record?
Answer: The Potency was inconclusive [activator, single point].

Question: With `COc1ccccc1NC(=S)NCC1CCCCC1` as the compound, how does the Potency read?
Answer: Its Potency is inconclusive [activator, partial curve, poor fit].

Question: With `COC(=O)c1ccc(NC(=S)NCCC2=CCCCC2)cc1` as the compound, how does the Potency read?
Answer: Its Potency is “inactive”.

Question: Which Potency does the source give for `COc1ccc(C(=O)NNC(=O)C2CCCO2)cc1` (stereo not given) here?
Answer: Its Potency is “inactive”.

Question: With `CCOCCCn1c(SCC(=O)Nc2ccc(C(N)=O)cc2)nc2ccccc2c1=O` as the compound, how does the Potency read?
Answer: Its Potency is “inactive”.

Question: Which Potency does the source give for `O=C(Nc1ccc2c(c1)CCCN2C(=O)c1cccs1)c1ccccc1` here?
Answer: Its Potency is inconclusive [activator, single point].

Question: With `O=C(Nc1cccc(Cl)c1)c1ccccc1` as the compound, how does the Potency read?
Answer: Its Potency is “inactive”.

Question: Which Potency does the source give for `CCN1CCN(Cc2ccc(NC(=O)c3ccc(C)c(NC(=O)c4cc(-c5ccc(Br)cc5)n[nH]4)c3)cc2C(F)(F)F)CC1` here?
Answer: The Potency was inconclusive [activator, full curve, poor fit].

Question: For `COc1cc(-c2nnc(-c3ccncc3)o2)ccc1OCc1ccccc1`, which Potency is on record?
Answer: Its Potency is inconclusive [activator, full curve, poor fit].

Question: With `COC(=O)c1c(SCC(=O)NC2CCCCC2)[nH]c2ccccc2c1=O` as the compound, how does the Potency read?
Answer: The Potency was “inactive”.

Question: Which Potency does the source give for `C/C(=C\C(=O)c1ccccc1)Nc1cccc(O)c1` here?
Answer: The Potency was inconclusive [activator, single point].

Question: Which Potency does the source give for `Cc1c(C(=O)C(=O)N2c3ccc(F)cc3CCC2C)c2ccccc2n1C` (stereo not given) here?
Answer: Its Potency is active: 2.59 µM.

Question: Which Potency does the source give for `Cc1cc(N/N=C/c2ccncc2)nc2ccccc12` here?
Answer: The Potency was “inactive”.

Question: For `COc1ccccc1NC(=O)COc1ccc(C(=O)NC2CCCc3ccccc32)cc1OC` (stereo not given), which Potency is on record?
Answer: Its Potency is inconclusive [activator, partial curve].

Question: Which Potency does the source give for `Cc1c(NS(=O)(=O)c2cccc(C(=O)OCC(=O)N(C)C3CCCCC3)c2)c(=O)n(-c2ccccc2)n1C` here?
Answer: The Potency was inconclusive [activator, partial curve, poor fit].

Question: Which Potency does the source give for `Cc1cccc2nc(CSc3nc4cc([N+](=O)[O-])ccc4s3)cn12` here?
Answer: Its Potency is “inactive”.

Question: Which Potency does the source give for `Cc1ccc(C2CC2C(=O)NNC(=S)Nc2ccc(Cl)cc2)cc1` (stereo not given) here?
Answer: The Potency was “inactive”.

Question: Which Potency does the source give for `COc1ccc(-c2cc(C3CC3)nc3sc(C#N)c(N)c23)cc1` here?
Answer: The Potency was active: 3.66 µM.

Question: With `O=C(OCc1ccccc1)N1C=CC2CC1c1c(Cl)cccc12` (stereo not given) as the compound, how does the Potency read?
Answer: The Potency was active: 23.1 µM.

Question: Which Potency does the source give for `O=[N+]([O-])c1c(NCCCO)cc(SCc2ccco2)c2nonc12` here?
Answer: Its Potency is inconclusive [activator, single point].

Question: For `COc1cccc(N2CCN(C(=O)c3ccc(CS(=O)Cc4ccccc4Cl)o3)CC2)c1` (stereo not given), which Potency is on record?
Answer: Its Potency is “inactive”.

Question: With `O=C(O)CCC(=O)Nc1sc2c(c1C(=O)Nc1ccccc1)CCCCC2` as the compound, how does the Potency read?
Answer: The Potency was inconclusive [activator, partial curve, poor fit].

Question: Which Potency does the source give for `O=C(NCc1cccnc1)c1nc(-c2ccc(C(F)(F)F)cc2)no1` here?
Answer: The Potency was “inactive”.

Question: For `CCN(CC)c1nc2ccccc2nc1-n1nc(C)cc1C`, which Potency is on record?
Answer: The Potency was “inactive”.

Question: With `COc1ccc(-c2nc(NC(=O)c3[nH]c(C)c(C(C)=O)c3C)sc2C)cc1` as the compound, how does the Potency read?
Answer: Its Potency is inconclusive [activator, single point].

Question: For `CCOC(=O)c1c(S(=O)(=O)N2CCCC(C(=O)Nc3ccc(C)cn3)C2)c(C)n(C)c1C` (stereo not given), which Potency is on record?
Answer: Its Potency is “inactive”.

Question: For `Cc1cccc(/C=N/n2c(-c3cc(-c4ccccc4)n[nH]3)n[nH]c2=S)c1`, which Potency is on record?
Answer: The Potency was inconclusive [activator, single point].

Question: With `CCOc1ccc(NC(=O)Nc2cccnc2)cc1` as the compound, how does the Potency read?
Answer: Its Potency is inconclusive [activator, full curve, poor fit].

Question: For `CCC(c1nnnn1Cc1cccs1)N1CCN(c2nc3ccccc3s2)CC1` (stereo not given), which Potency is on record?
Answer: Its Potency is inconclusive [activator, single point].

Question: For `CCOC(=O)/C(=N\Nc1ccc(Cl)cc1)c1csc(Nc2ccccc2)n1`, which Potency is on record?
Answer: The Potency was active: 3.98 µM.

Question: Which Potency does the source give for `CCCCN(CCCC)CCC(O)c1cc2c(Cl)cc(Cl)cc2c2cc(C(F)(F)F)ccc12` (stereo not given) here?
Answer: Its Potency is inconclusive [activator, single point].

Question: Which Potency does the source give for `O=C(NNS(=O)(=O)c1ccc(F)cc1)c1ccccc1` here?
Answer: The Potency was inconclusive [activator, full curve, poor fit].

Question: Which Potency does the source give for `Cc1ccc(S(=O)(=O)Nc2cc(C(C)C)c(O)cc2C)cc1` here?
Answer: Its Potency is inconclusive [activator, single point].

Question: Which Potency does the source give for `O=C(COC(=O)c1cc(S(=O)(=O)N2CCOCC2)c(Cl)cc1Cl)c1ccc[nH]1` here?
Answer: The Potency was inconclusive [activator, partial curve, poor fit].

Question: For `CCOCCCNC(=S)N1CCCN(c2nc3cc(C)c(C)cc3cc2C#N)CC1`, which Potency is on record?
Answer: Its Potency is inconclusive [activator, single point].

Question: With `CC(C)CC(NC(=O)OC(C)(C)C)c1cn([C@@H](CCC(=O)OC(C)(C)C)C(=O)N2CCN(C(=O)OC(C)(C)C)CC2)nn1` (stereo not given in full) as the compound, how does the Potency read?
Answer: The Potency was “inactive”.

Question: With `CCNc1c(C(=O)O)ccc2c1C(=O)c1ccccc1C2=O` as the compound, how does the Potency read?
Answer: Its Potency is “inactive”.

Question: For `Cc1ccc(-c2nnc(SCC(=O)N3CCOCC3)nc2-c2ccc(C)cc2)cc1`, which Potency is on record?
Answer: Its Potency is inconclusive [activator, partial curve].

Question: Which Potency does the source give for `O=C1NC[C@H](Cc2ccccc2)N(C[C@H]2CCCN2C[C@H](Cc2ccccc2)N2C[C@H](Cc3ccccc3)N(CC3CCCCCC3)C(=O)C2=O)C1=O` here?
Answer: The Potency was inconclusive [activator, partial curve, poor fit].

Question: With `O=C(NCc1ccc(Cl)cc1)c1ccccc1CCc1ccccc1` as the compound, how does the Potency read?
Answer: Its Potency is inconclusive [activator, single point].

Question: Which Potency does the source give for `Oc1cccc(/C=N/Nc2cccc3cccnc23)c1` here?
Answer: The Potency was inconclusive [activator, single point].

Question: For `CCc1ccc(-c2nn(-c3ccccc3)cc2C2SCC(=O)N2Cc2ccco2)cc1` (stereo not given), which Potency is on record?
Answer: The Potency was inconclusive [activator, single point].

Question: Which Potency does the source give for `O=C(CNc1cc(S(=O)(=O)N2CCOCC2)ccc1N1CCCC1)Nc1ccc(Cl)cc1` here?
Answer: The Potency was inconclusive [activator, single point].

Question: For `CC(=O)c1cccc(NC(=S)NC(=O)Cc2ccccc2)c1`, which Potency is on record?
Answer: The Potency was “inactive”.

Question: For `COc1ccccc1NC(=O)c1cnc2c(-c3ccccc3)c(C)nn2c1C`, which Potency is on record?
Answer: The Potency was inconclusive [activator, single point].

Question: Which Potency does the source give for `C=CCSc1nc(C)cc2c1C(=O)OC2` here?
Answer: The Potency was inconclusive [activator, single point].

Question: For `Cc1nn(C)cc1/C=N\NC(=O)c1ccc2c(c1)c(C)c(C)n2Cc1ccccc1`, which Potency is on record?
Answer: The Potency was inconclusive [activator, partial curve, poor fit].

Question: With `CCOC(=O)c1ccc(NC(=S)NN2CCOCC2)cc1` as the compound, how does the Potency read?
Answer: The Potency was active: 23.1 µM.

Question: For `Cc1ccc(S(=O)(=O)Nc2nc3ccccc3s2)cc1[N+](=O)[O-]`, which Potency is on record?
Answer: Its Potency is inconclusive [activator, partial curve, poor fit].

Question: With `CCN(CC)C(c1ccc(C)cc1)c1nnnn1C1CCCCC1` (stereo not given) as the compound, how does the Potency read?
Answer: The Potency was inconclusive [activator, partial curve, poor fit].

Question: For `COC(=O)[C@H](C)NC(=O)Nc1cc(Cl)ccc1C`, which Potency is on record?
Answer: Its Potency is inconclusive [activator, single point].

Question: Which Potency does the source give for `O=C(Nc1cc(Cl)ccc1N1CCOCC1)c1cccnc1` here?
Answer: Its Potency is “inactive”.

Question: For `S=C1Nc2ccccc2Sc2ccc(Cl)cc21`, which Potency is on record?
Answer: The Potency was inconclusive [activator, partial curve, poor fit].

Question: Which Potency does the source give for `NC(N)=N/N=C/c1ccc(OCc2ccccc2)c(OCc2ccccc2)c1` here?
Answer: Its Potency is active: 11.6 µM.

Question: For `CCc1ccc(-c2cc(C)no2)cc1S(=O)(=O)N1CCOc2ccc(C)cc21`, which Potency is on record?
Answer: Its Potency is inconclusive [activator, full curve, poor fit].
